# Test results from PubChem BioAssay (Tox21).
# Where “and” joins values, the source holds several entries; their conditions need not be identical. Equal entries are not always repeated. This list was built around the results that the source calls inconclusive (neither active nor inactive); the mix of calls is not that of the screen. For part of these data: Potencies beside an inconclusive call are fits to weak or partial responses and may not hold up. Calls of active or inactive are those of the source. Unless noted, calls follow the shape of the dose curve; as a rule, active = well fitted curve in the direction sought with a large enough effect in the repeat runs; inconclusive = weak or mixed curves; inactive = no such curve, though single readings can be large; an effect the other way counts as inactive or inconclusive.
# Tests used:
# [1] = qHTS assay to identify small molecule antagonists of the androgen receptor (AR) signaling pathway - cell viability counter screen (AID 743033; also: nearly all actives have a fitted effect of over 45% in size); details: AR-bla HEK293 viability, CellTiter-Glo luminescence, 16 h; activity change, negative = cytotoxicity: at 58.5 µM (top of the series)
# [2] = qHTS assay to identify small molecule antagonists of the thyroid receptor (TR) signaling pathway - cell viability counter screen (AID 743064); details: GH3.TRE-Luc viability, CellTiter-Fluor, 24 h; activity change, negative = cytotoxic: at 70.3 µM (top of the series) unless noted; also: nearly all actives have a fitted effect of over 50% in size
# How it was run: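 GH3.TRE-Luc cells, 4 h pre-plating; cpd + T3 1 nM final; 37 °C 23.5 h; CellTiter-Fluor 30 min; fluorescence read.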
# [3] = qHTS assay to identify small molecule antagonists of the androgen receptor (AR) signaling pathway using the MDA cell line - cell viability counter screen (AID 743041; also: nearly all actives have a fitted effect of over 45% in size); details: MDA-kb2 viability, CellTiter-Fluor, 16 h, cells co-treated with R1881 androgen agonist; viability change, negative = cytotoxic: at 70.3 µM (top of the series) unless noted
# How it was run: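 Compound exposure lasted 16 h at 37C in MDA-kb2 AR-luc cells stimulated with R1881. Protease-based CellTiter-Fluor reagent was applied for the final 30 min and fluorescence measured.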
# [4] = target: Androgen receptor (Homo sapiens) (UniProt P10275); assay: qHTS assay to identify small molecule agonists of the androgen receptor (AR) signaling pathway (AID 743036; active = well fitted activation curve with a large enough effect in the signal ratio in the repeat runs, with a control signal flat, not every such curve was filed as active; inconclusive = weak or mixed curves, or effect the other way; inactive = no such curve, though single readings can be large or run the other way; the % refers to the signal ratio); details: HEK293 AR-UAS-bla GripTite, beta-lactamase FRET ratio, 16 h; activation: at 62.4 µM (top of the series) unless noted
# How it was run: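 AR-bla HEK293 cells, 2,000/well; 4 h preincubation 37C/5% CO2; compound (DMSO) 16 h at 37C; LiveBLAzer B/G FRET substrate 2 h RT; fluorescence intensity read-out.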
# [5] = target: Androgen receptor (Homo sapiens) (UniProt P10275); assay: qHTS assay to identify small molecule antagonists of the androgen receptor (AR) signaling pathway (AID 743035; active = well fitted inhibition curve with a large enough effect in the signal ratio in the repeat runs, not every such curve was filed as active; inconclusive = weak or mixed curves, or effect the other way; inactive = no such curve, though single readings can be large or run the other way; the % refers to the signal ratio); details: HEK293 AR-UAS-bla, R1881-stimulated, beta-lactamase FRET, 16 h; activity change, negative = inhibition: at 58.5 µM (top of the series) unless noted
# How it was run: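 R1881 agonist challenge of a HEK293 UAS-beta-lactamase AR reporter line in the presence of compound (16 h, 37C); signal taken as FRET fluorescence after 2 h with LiveBLAzer B/G substrate at room temperature.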
# [6] = target: Androgen receptor (Homo sapiens) (UniProt P10275); assay: qHTS assay to identify small molecule agonists of the androgen receptor (AR) signaling pathway using the MDA cell line (AID 743040; also: nearly all actives have a fitted effect of over 20% in size); details: MDA-kb2 AR-luc cells, MMTV luciferase, 16 h; activity change: at 70.3 µM (top of the series), stronger effect = higher value
# How it was run: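 Testing was done with the MDA-kb2 AR-luc line, a human breast carcinoma stably transfected with MMTV-luciferase containing AR and GR response elements. Cells were exposed 16 h at 37C before ONE-Glo luminescence detection.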
# [7] = target: Androgen receptor (Homo sapiens) (UniProt P10275); assay: qHTS assay to identify small molecule antagonists of the androgen receptor (AR) signaling pathway using the MDA cell line (AID 743042; also: nearly all actives have a fitted effect of over 55% in size)
# How it was run: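 MDA-kb2 breast carcinoma cells carrying MMTV-luciferase (AR/GR responsive) were co-treated with compounds and the agonist R1881 for 16 h at 37C. Inhibition read as ONE-Glo luminescence; CellTiter-Fluor fluorescence measured in parallel for cytotoxicity.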
# % is scaled to controls: 0 for no effect and ±100 for the full control effect; potency is read from the fitted curve at half-maximal effect; tags tell the direction and shape of the fitted curve or compound fluorescence and quenching.
# Sequence of UniProt P10275 (P10275 whole entry, looked up): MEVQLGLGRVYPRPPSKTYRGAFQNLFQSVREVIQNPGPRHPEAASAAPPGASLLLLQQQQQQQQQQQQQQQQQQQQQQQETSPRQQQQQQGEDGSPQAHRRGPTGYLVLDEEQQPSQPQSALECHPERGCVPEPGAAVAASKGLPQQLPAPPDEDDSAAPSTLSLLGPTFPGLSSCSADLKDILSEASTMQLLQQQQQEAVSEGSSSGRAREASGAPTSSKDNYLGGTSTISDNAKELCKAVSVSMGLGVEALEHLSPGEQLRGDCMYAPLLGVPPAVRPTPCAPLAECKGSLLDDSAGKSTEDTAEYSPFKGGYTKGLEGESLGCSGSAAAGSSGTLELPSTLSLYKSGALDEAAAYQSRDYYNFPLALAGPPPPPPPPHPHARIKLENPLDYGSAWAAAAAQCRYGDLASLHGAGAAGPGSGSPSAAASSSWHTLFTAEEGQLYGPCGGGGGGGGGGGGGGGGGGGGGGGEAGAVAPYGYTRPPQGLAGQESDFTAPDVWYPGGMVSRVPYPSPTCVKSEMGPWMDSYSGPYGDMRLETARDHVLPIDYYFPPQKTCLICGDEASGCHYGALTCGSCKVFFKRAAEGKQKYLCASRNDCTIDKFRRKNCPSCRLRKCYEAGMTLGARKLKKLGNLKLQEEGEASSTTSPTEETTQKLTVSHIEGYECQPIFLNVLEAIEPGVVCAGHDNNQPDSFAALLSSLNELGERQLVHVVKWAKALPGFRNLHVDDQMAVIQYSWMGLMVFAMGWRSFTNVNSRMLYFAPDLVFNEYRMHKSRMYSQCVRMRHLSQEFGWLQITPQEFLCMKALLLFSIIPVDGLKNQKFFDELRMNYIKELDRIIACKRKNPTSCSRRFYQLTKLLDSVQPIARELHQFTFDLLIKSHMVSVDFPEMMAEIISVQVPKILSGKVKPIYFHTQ
compound,measurement,setting,value
COC(=O)C1CCC(C(=O)OC)CC1 (configuration not stated),Potency,[1],"inconclusive: 49 µM [cytotoxic, partial curve]"
same,Potency,[2],"inconclusive: 69.4 µM [rising, single point]"
CN(C)CCCN1c2ccccc2Sc2ccc(C(F)(F)F)cc21,Potency,[1],"inconclusive: 21.3 µM [cytotoxic, partial curve]"
same,Potency,[3],"inconclusive: 33.5 µM [cytotoxic, single point]"
same,Potency,[2],active: 9.44 µM
NC(N)=Nc1nc(CSCC/C(N)=N/S(N)(=O)=O)cs1,Potency,[1],inconclusive: 0.001 µM [cytotoxic]
same,Potency,[2],"inconclusive: 0.237 µM [rising, full curve, poor fit]"
CCOC(=O)CC,Potency,[1],inactive
same,Potency,[2],inactive
O=C1CCCCCCCCCCC1,Potency,[3],inactive
same,Potency,[2],"inconclusive: 61.1 µM [rising, single point]"
CC1=C(C=O)C(C)(C)CCC1,Potency,[2],inactive
Clc1ccc2nsnc2c1NC1=NCCN1,activation,[4],inconclusive: 17.8%
same,Potency,[2],inactive
CC(C)=CCC1C(=O)N(c2ccccc2)N(c2ccccc2)C1=O,Potency,[3],"inconclusive: 31.2 µM [cytotoxic, partial curve, poor fit]"
C1CCC(C(CC2CCCCN2)C2CCCCC2)CC1 (configuration not stated),Potency,[5],inconclusive: 26.8 µM
same,Potency,[4],"inconclusive: 21.3 µM [cytotoxic, partial curve]"
same,Potency,[2],active: 4.73 µM
Nc1c(Cl)cc(Cl)cc1Cl,Potency,[2],"inconclusive: 42.6 µM [rising, partial curve]"
O=C(/C=C/c1ccccc1)OCCc1ccccc1,Potency,[5],inactive
same,Potency,[4],inactive
C=CC(=O)OCCCCCCCC(C)C,Potency,[5],inactive
same,Potency,[4],inactive
CC1=CCC(C(C)(C)O)CC1 (configuration not stated),Potency,[4],inactive
same,Potency,[3],inactive
same,"activity change, negative = cytotoxic",[2],inconclusive: 16.7%
C=C1C[C@@]23CC[C@H]4[C@@](C)(CCC[C@@]4(C)C(=O)O[C@@H]4O[C@H](CO)[C@@H](O)[C@H](O)[C@H]4O)[C@@H]2CC[C@]1(O[C@@H]1O[C@H](CO)[C@@H](O)[C@H](O[C@@H]2O[C@H](CO)[C@@H](O)[C@H](O)[C@H]2O)[C@H]1O[C@@H]1O[C@H](CO)[C@@H](O)[C@H](O)[C@H]1O)C3,Potency,[4],inactive
same,Potency,[6],inactive
O=C(OCC(COC(=O)c1cccnc1)(COC(=O)c1cccnc1)COC(=O)c1cccnc1)c1cccnc1,Potency,[6],inactive
CC(=O)N/N=C/c1ccc([N+](=O)[O-])o1,Potency,[2],active: 18.8 µM
CNC(=O)c1cc(Oc2ccc(NC(=O)Nc3ccc(Cl)c(C(F)(F)F)c3)cc2)ccn1,Potency,[3],active: 16.8 µM
Cc1ccc(N/N=c2\c(=O)cc/c(=N\Nc3ccc(S(=O)(=O)O)cc3)c2=O)c(C)c1,Potency,[3],active: 27.3 µM
same,Potency,[2],active: 61.1 µM
CC(=O)OCC(COC(C)=O)OC(C)=O,Potency,[2],"inconclusive: 9.69 µM [rising, full curve, poor fit]"
Cc1ccccc1S,Potency,[2],"inconclusive: 0.436 µM [rising, single point]"
COc1ccccc1NC(=O)c1cc2ccccc2cc1O,Potency,[5],inconclusive: 17.4 µM [full curve]
same,Potency,[7],"inconclusive: 68.6 µM [inhibitor, single point]"
CC(C)(C)C(=O)OCOC(=O)C1N2C(=O)CC2S(=O)(=O)C1(C)C (configuration not stated),Potency,[5],active: 6.74 µM
FC(F)(F)c1cccc(Cl)c1,Potency,[5],inactive
same,Potency,[4],"inconclusive: 53.9 µM [activator, single point]"
same,Potency,[7],"inconclusive: 67.3 µM [inhibitor, single point]"
O=S(=O)(O)c1cc(S(=O)(=O)O)c2c(N=Nc3ccccc3)c(O)ccc2c1,Potency,[3],active: 27.4 µM and active: 38.6 µM
same,Potency,[2],active: 27.4 µM and active: 68.6 µM
COc1cccc2c1C(=O)c1c(O)c3c(c(O)c1C2=O)C[C@@](O)(C(=O)CO)C[C@@H]3O[C@H]1C[C@H](N)[C@H](O[C@@H]2CCCCO2)[C@H](C)O1,Potency,[5],active: 8.49 µM
same,Potency,[4],"inconclusive: 7.56 µM [falling, partial curve, poor fit]"
same,Potency,[3],"inconclusive: 15 µM [cytotoxic, partial curve]"
same,Potency,[7],active: 4.22 µM
NC(=NCCCCCCN=C(N)/N=C(\N)Nc1ccc(Cl)cc1)/N=C(\N)Nc1ccc(Cl)cc1,Potency,[3],"inconclusive: 68 µM [cytotoxic, single point] [middle of 4 runs]"
CCCCOC(O)CC (configuration not stated),"activity change, negative = inhibition",[5],inconclusive: 10.3%
same,Potency,[4],inactive
same,Potency,[2],inactive
CCCCC[C@H](O)/C=C/[C@H]1[C@H](O)CC(=O)[C@@H]1C/C=C\CCCC(=O)O,Potency,[5],"inconclusive: 0.0674 µM [rising, full curve]"
same,Potency,[4],"inconclusive: 21.3 µM [rising, partial curve, poor fit]"
same,Potency,[7],"inconclusive: 0.0211 µM [inhibitor, full curve]"
same,Potency,[2],"inconclusive: 13.3 µM [cytotoxic, partial curve, poor fit]"
CCCCCCC(C)(C)C(=O)O,Potency,[5],"inconclusive: 49 µM [falling, single point]"
O=[N+]([O-])c1cc(N(CCO)CCO)ccc1NCCO,Potency,[7],"inconclusive: 61 µM [inhibitor, single point] and inconclusive: 68.6 µM [inhibitor, partial curve, poor fit]"
same,Potency,[2],"active: 61 µM and inconclusive: 68.6 µM [cytotoxic, single point]"
O=C(OC(=O)c1ccccc1)c1ccccc1,Potency,[5],inactive
same,Potency,[4],"inconclusive: 12.5 µM [activator, single point]"
same,"viability change, negative = cytotoxic",[3],inconclusive: 30.9% [at 95 µM]
O=C(O)c1cc(O)c2ccccc2c1O,Potency,[3],"inconclusive: 8.63 µM [cytotoxic, partial curve]"
same,Potency,[2],active: 9.69 µM
CC1CCCC(=O)C1=O (configuration not stated),Potency,[5],inactive
same,Potency,[4],inactive
same,Potency,[2],inactive
CCOc1ccccc1C(N)=O,Potency,[5],inactive
same,Potency,[4],inactive
same,Potency,[2],inactive
O=C1CC2CC1C1CCCC21 (configuration not stated),Potency,[5],inactive
same,Potency,[4],inactive
same,Potency,[6],active: 54.5 µM
same,Potency,[7],inactive
same,Potency,[2],"inconclusive: 77 µM [rising, partial curve, poor fit]"
NNC(=O)CP(=O)(c1ccccc1)c1ccccc1,Potency,[3],"inconclusive: 16.8 µM [rising, partial curve, poor fit]"
Cc1nc2ccccc2s1,Potency,[3],inactive
Cn1cnc2ncnc(N)c21,Potency,[3],inactive
same,Potency,[2],inactive
CCCCCCCCCC(=O)OC,Potency,[2],"inconclusive: 60 µM [rising, single point]"
Cc1cn[nH]c1,Potency,[5],inactive
CCCCCCCCCCCCCCCC,Potency,[2],"inconclusive: 54.5 µM [rising, partial curve]"
CCOC(=O)Cn1cccc1-c1nc(-c2ccc(OC)cc2)c(-c2ccc(OC)cc2)s1,Potency,[5],inactive
same,activation,[4],inconclusive: 9.69%
same,Potency,[7],inactive
same,Potency,[2],"inconclusive: 15 µM [cytotoxic, full curve, poor fit]"
N#CCCN(CCO)CCO,Potency,[2],"inconclusive: 68.6 µM [rising, partial curve, poor fit]"
NC(=Nc1ccccc1)Nc1ccccc1,Potency,[3],"inconclusive: 2.43 µM [cytotoxic, partial curve, poor fit]"
